Among all 360,000 compounds or so, about 6,000 (1.7%) were called active. The shares of active, inactive and inconclusive entries below differ from those in the screen. The call rests on the fitted dose curve; in most records, active means well fitted cell-killing curve with a large enough effect; inconclusive means small, poorly fitted or top-dose-only effect, or effect the other way; inactive means flat fitted curve, though single readings scatter. No potency is given beside an inconclusive call; the fits are too rough.
Assay: qHTS for induction of synthetic lethality in tumor cells producing 2HG: qHTS for the HT-1080-NT fibrosarcoma cell line;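 further: NT is the 2HG producing partner of a matched IDH1 knockdown line; nearly all actives have a fitted effect of over 55% in size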;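 on activity, negative = less viability: 0% = DMSO-treated cells and -100% = media-only wells without cells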
Conditions: HT-1080-NT fibrosarcoma viability, CellTiter-Glo ATP luminescence, 48 h; activity, negative = less viability: at 46.1 µM (top of the series) unless noted
In short: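 HT-1080-NT; 750 cells/well; 5% FBS RPMI; 48 h compound, 37 degrees C; CellTiter-Glo luminescence; curve fitting and curve-class assignment.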
With `CN(c1ccccc1)S(=O)(=O)c1cccc(NC(=O)Cc2ccc(Cl)cc2)c1` the Potency was inconclusive [cytotoxic, single point]. In the case of `COc1cccc(C2=NN(C(=O)c3cccs3)C(O)(C(F)(F)F)C2)c1` (stereo not drawn), the Potency is reported as inconclusive [cytotoxic, partial curve]. In the case of `CN(C)NC(=S)NC1CC2CCC1C2` (stereo not drawn), the “activity, negative = less viability” value is reported as inactive: 1.95%. For `Cn1c(=O)c2c(SCC(=O)N3CCCCC3)nc(-c3ccccc3F)nc2n(C)c1=O`, the “activity, negative = less viability” value was inactive: 0.679%. In the case of `CCCOc1c(Cl)cc(C(=O)Nc2ccc3c(c2)OCO3)cc1OCC`, the Potency is reported as inconclusive [cytotoxic, partial curve]. For `CCOCCCNC(=S)N1CCN(c2nc(-c3ccc(F)cc3)cs2)CC1`, the Potency was active: 20.6 µM. With `CC(=Nc1ccccc1C(F)(F)F)c1ccncc1` the “activity, negative = less viability” value was inactive: 17.5%. In the case of `CC(C)(C)c1cc[n+](C2=C([O-])c3ccccc3C(=O)/C2=N\S(=O)(=O)c2cccs2)cc1`, the Potency is reported as active: 14.6 µM. For `O=[N+]([O-])c1ccc(-c2cnc(SCc3ccccc3Cl)[nH]2)cc1`, the Potency was inconclusive [cytotoxic, single point]. For `COc1ccccc1C(=O)Nc1ccc2c(c1)CN(C(=O)CSC)CC2`, the Potency was active: 13 µM. For `Cc1ccc(C)c(OCCC(=O)Nc2ccc(S(=O)(=O)N3CCCC3)cc2)c1`, the Potency was inconclusive [cytotoxic, single point]. In the case of `O=C(Nc1ccc2snnc2c1)Nc1cccc2ccccc12`, the Potency is reported as inconclusive [cytotoxic, single point]. With `Cc1ccc(NC(=O)CSCc2cc(=O)n3cc(C)sc3n2)cc1` the Potency was inconclusive [rising, single point]. With `COc1cccc(OC)c1OCCN1CCCC1` the “activity, negative = less viability” value was inactive: -2.98%. With `O=C(NC1CCCCC1)C(c1ccnc2ccccc12)n1c(=O)c(-c2ccccc2)nc2ccccc21` (stereo not drawn) the Potency was active: 13 µM. With `CC(=O)c1cccc(NC(=O)Cc2ccc3c(c2)CCCC3)c1` the activity, negative = less viability was inconclusive: -30.9% [cytotoxic]. With `COc1ccccc1N(C)S(=O)(=O)c1ccc(C(=O)NCc2ccccc2CN2CCCC2)cc1` the Potency was inconclusive [cytotoxic, partial curve]. In the case of `O=C(N/N=C/c1ccccc1Cl)c1[nH]c2ccc(Br)cc2c1-c1ccccc1`, the Potency is reported as active: 0.517 µM. With `CC(C)(C)C1CCC(=NNC(=O)C2COc3ccccc3O2)CC1` (stereo not drawn) the Potency was inconclusive [cytotoxic, single point]. For `COC(=O)[C@@]12C[C@@H](CC(=O)NCC34CC5CC(CC(C5)C3)C4)C(=O)N(CCc3ccc(OC)c(OC)c3)C1=CCC(C)(C)C2`, the Potency was inconclusive [cytotoxic, single point]. With `CCCn1c(=N)n(CCOc2ccc(OC)cc2)c2ccccc21` the Potency was inconclusive [cytotoxic, single point]. In the case of `Cc1ccc(-n2c(-c3ccccc3)c[n+]3c2CCC3)cc1`, the Potency is reported as inconclusive [cytotoxic, single point]. For `S=C1NC2(CCCCC2)NN1c1ccccc1`, the Potency was inconclusive [cytotoxic, partial curve]. In the case of `Cc1cc(NC(c2ccc(Cl)cc2)c2ccc3cccnc3c2O)no1` (stereo not drawn), the Potency is reported as inconclusive [cytotoxic, full curve]. With `COCCCNCCOc1ccc(C(C)(C)c2ccccc2)cc1` the Potency was inconclusive [cytotoxic, single point]. For `c1ccc(-c2cccc(-c3ccccn3)n2)nc1`, the Potency was inconclusive [cytotoxic, full curve]. With `Cc1ccc(C)c(N2CCN(S(=O)(=O)c3ccc(-c4cc(C)no4)s3)CC2)c1` the “activity, negative = less viability” value was inactive: -0.929%. With `C=C[C@@H]1c2cc(C)ccc2N(S(=O)(=O)c2ccc(C)cc2)[C@H](c2ccc(OC(C)=O)cc2)C1(C#N)C#N` the Potency was active: 7.31 µM. In the case of `O=C(OCCc1ccccc1)c1cc(O)c(O)c(O)c1`, the “activity, negative = less viability” value is reported as inactive: -13.6%. With `CCOc1ccccc1N(C)C(=O)c1nn(-c2ccc(OC)cc2OC)c(=O)c2ccccc12` the “activity, negative = less viability” value was inactive: 12.1%. For `CCCN(CC(=O)Nc1ccccc1C)C(=O)c1ccc2[nH]c3c(c2c1)CC(C)CC3` (stereo not drawn), the Potency was inconclusive [cytotoxic, single point]. In the case of `O=C(CSc1nc2nc(-c3cccs3)cc(C(F)(F)F)c2c(=O)[nH]1)Nc1c(F)c(F)c(F)c(F)c1F`, the Potency is reported as active: 11.6 µM. For `O=C1CCN(Cc2ccccc2)C=C1c1ccc2ccccc2c1`, the “activity, negative = less viability” value was inactive: -2.57%. With `CC1Cc2ccccc2N1S(=O)(=O)c1cccc(C(=O)NC2CC2)c1` (stereo not drawn) the Potency was inconclusive [cytotoxic, single point]. With `COc1ccc(/C=C/C(O)=C2/C(=O)NC3(C)CC2c2ccccc2O3)c(OC)c1OC` (stereo not drawn) the Potency was inconclusive [cytotoxic, single point]. For `O=C(NCCCN1CCOCC1)c1ccc(CNS(=O)(=O)c2ccc(F)cc2)cc1`, the “activity, negative = less viability” value was inactive: 3.08%. With `CCCSc1nnc(NC(=O)Nc2ccc(F)cc2)s1` the Potency was inconclusive [cytotoxic, partial curve]. In the case of `CC(=NNC(=S)N1CC2CCC(CC2)C1)c1cnccn1`, the Potency is reported as inconclusive [cytotoxic, partial curve, poor fit]. For `COc1cc(OC)c(C(=O)OCC(=O)NCCC2=CCCCC2)cc1OC`, the “activity, negative = less viability” value was inactive: 0.449%. For `C=CCN(C(=O)CSC1=NC(=O)CN1C(C)=O)c1nc(C)c(-c2ccccc2)s1`, the Potency was inconclusive [cytotoxic, single point]. For `Cc1cccc(OCCCC(=O)NNC(=O)c2ccccn2)c1`, the Potency was inconclusive [cytotoxic, partial curve]. For `COc1ccc(CNc2ncc(-c3ccc(F)cc3)n2C)c2ccccc12`, the Potency was active: 23.1 µM. In the case of `CC1(C(=O)NS(=O)(=O)C2CC2)CCN(C(=O)COCc2ccccc2)C1` (stereo not drawn), the “activity, negative = less viability” value is reported as inactive: 1.76%. For `CNC(=O)c1cnn(-c2nc(-c3ccc(OC)cc3)cs2)c1C(F)(F)F`, the “activity, negative = less viability” value was inactive: -7.8%. With `CC(=O)n1cc(N(C(=O)CCl)c2ccc(C)cc2)c2ccccc21` the Potency was active: 2.31 µM. For `COc1c(Cl)cc(C(=O)NN)cc1Cl`, the Potency was active: 2.06 µM. In the case of `COc1ccc(/C=C/C(=O)C2CC2)cc1Cn1nc(C)c([N+](=O)[O-])c1C`, the Potency is reported as inconclusive [cytotoxic, single point]. In the case of `NC(CCc1ccccc1)c1csc(NC(=O)NCC2CCCCC2)n1` (stereo not drawn), the Potency is reported as active: 16.4 µM. In the case of `Cc1ccc(C)c(NS(=O)(=O)c2cc(C(=O)Nc3cccc(N(C)S(C)(=O)=O)c3)ccc2C)c1`, the Potency is reported as inconclusive [cytotoxic, single point]. With `CC1=C(C(N)=O)S(=O)(=O)c2ccccc21` the “activity, negative = less viability” value was inactive: 8.33%. For `CCc1ccc(N2CC(C(=O)Nc3ccccc3N3CCCC3)CC2=O)cc1` (stereo not drawn), the Potency was inconclusive [cytotoxic, single point]. In the case of `Cc1c(C(=O)OCCOC(C)C)[nH]c2c1C(=O)CC(c1ccco1)C2` (stereo not drawn), the Potency is reported as active: 0.411 µM. For `Cc1nc(NC(=O)/C=C/c2ccccc2)sc1C(=O)Nc1ccccc1`, the Potency was inconclusive [cytotoxic, single point]. In the case of `S=C(NCCc1ccccc1)N1CCC2CC1c1cc(-c3ccc4c(c3)OCO4)ccc12` (stereo not drawn), the Potency is reported as inconclusive [cytotoxic, partial curve]. For `CC(C)C1Cc2ccccc2-c2[nH]c(=S)[nH]c(=O)c21` (stereo not drawn), the “activity, negative = less viability” value was inactive: 2.2%. With `CN(C)CCN(C)C1CN(Cc2ccccc2)S(=O)(=O)C1` (stereo not drawn) the “activity, negative = less viability” value was inactive: 5.9%. For `COc1ccc(-c2csc(/C(C#N)=C\c3ccc(OC)c([N+](=O)[O-])c3)n2)cc1`, the “activity, negative = less viability” value was inactive: 9.7%. With `COc1ccc(C(=O)N(C)CCCC2CCCC2)cc1OC1CCN(C(C)C)CC1` the Potency was inconclusive [cytotoxic, single point]. With `COCCCn1c(SCC(=O)Nc2ccc(C)cc2)nc2ccccc2c1=O` the “activity, negative = less viability” value was inactive: -18.2%. With `CC(=O)Nc1cccc(NC(=O)C(=O)c2cn(CC(=O)N3CCCC3)c3ccccc23)c1` the “activity, negative = less viability” value was inactive: 0.142%. For `COc1ccc(OCC(=O)Nc2c(C(=O)N(CCN(C)C)Cc3ccco3)oc3ccccc23)cc1`, the Potency was inconclusive [cytotoxic, single point]. In the case of `CCOc1ccc(/C=C/C(=O)N(C)CC(=O)Nc2cccc(F)c2)cc1OCC`, the Potency is reported as inconclusive [cytotoxic, single point]. With `CCN1CCc2c(sc(NC(=O)c3ccc(S(=O)(=O)N(CC)c4ccccc4)cc3)c2C(N)=O)C1` the Potency was active: 18.4 µM. In the case of `Cc1cc2nc(-c3ccc(SCC(=O)Nc4ccc(S(=O)(=O)N5CCCC5)cc4)nc3)[nH]c2cc1C`, the Potency is reported as inconclusive [cytotoxic, single point]. For `CC1CC2OC2CC1COC(=O)C1CC2OC2CC1C` (stereo not drawn), the “activity, negative = less viability” value was inactive: 8.17%. For `O=C(c1ccco1)N1CCN(S(=O)(=O)c2ccc(S(=O)(=O)NC3CC3)cc2)CC1`, the Potency was inconclusive [cytotoxic, single point]. For `O=C(Nc1ccc2c(c1)OCCO2)C(c1ccncc1)n1c(=O)c(-c2cc3ccccc3[nH]2)nc2ccccc21` (stereo not drawn), the Potency was inconclusive [cytotoxic, single point]. In the case of `O=C(Nc1ccc2oc(-c3ccccc3F)nc2c1)c1ccco1`, the Potency is reported as inconclusive [rising, full curve, poor fit]. In the case of `Cc1cc(C)c(NC(=O)CSc2nc3c(c(=O)n2C)SC(C)C3)c(C)c1` (stereo not drawn), the “activity, negative = less viability” value is reported as inactive: 12.3%. With `O=C(c1ccco1)N1N=C(c2cccs2)CC1c1ccccc1O` (stereo not drawn) the “activity, negative = less viability” value was inactive: -1.83%. In the case of `Cc1ccc2nc(C3CCN(CC(=O)Nc4ccc5c(c4)OCCO5)CC3)[nH]c2c1`, the Potency is reported as inconclusive [cytotoxic, single point]. With `CC1(C(=O)NS(=O)(=O)c2cccs2)CCN1C(=O)Cc1ccccc1` (stereo not drawn) the “activity, negative = less viability” value was inactive: -0.768%. In the case of `CC(C)Nc1ncnc2c1cnn2-c1ccccc1`, the activity, negative = less viability is reported as inconclusive: 26.8%.

Source: PubChem BioAssay AID686970 (National Center for Advancing Translational Sciences (NCATS), 2013)
Potency means the concentration at half of the fitted maximal effect; tags describe the fitted curve by direction and shape.
